Source: PubChem BioAssay AID1159614 (National Center for Advancing Translational Sciences (NCATS), 2016)
The campaign covered roughly 45,000 compounds. About 65 (0.1%) were called active. Calls come from the whole dose curve; as a rule, active = well fitted activation curve with a large enough effect; inconclusive = small, poorly fitted or top-dose-only effect; inactive = no such curve, though single readings can be large or run the other way. Some of the results follow.

Each compound was assayed against Galactocerebrosidase (Homo sapiens) (UniProt P54803) (assay: A Novel Cell-Based Assay to Identify Small Molecules for B -Galactocerebrosidase). Conditions: 145M-Twi-hGALC-G270D cells, HMU-beta-Gal fluorescence, 48 h; series mostly up to 57.5 µM; activation: at the top concentration.
UniProt P54803, sequence (P54803 whole entry, looked up): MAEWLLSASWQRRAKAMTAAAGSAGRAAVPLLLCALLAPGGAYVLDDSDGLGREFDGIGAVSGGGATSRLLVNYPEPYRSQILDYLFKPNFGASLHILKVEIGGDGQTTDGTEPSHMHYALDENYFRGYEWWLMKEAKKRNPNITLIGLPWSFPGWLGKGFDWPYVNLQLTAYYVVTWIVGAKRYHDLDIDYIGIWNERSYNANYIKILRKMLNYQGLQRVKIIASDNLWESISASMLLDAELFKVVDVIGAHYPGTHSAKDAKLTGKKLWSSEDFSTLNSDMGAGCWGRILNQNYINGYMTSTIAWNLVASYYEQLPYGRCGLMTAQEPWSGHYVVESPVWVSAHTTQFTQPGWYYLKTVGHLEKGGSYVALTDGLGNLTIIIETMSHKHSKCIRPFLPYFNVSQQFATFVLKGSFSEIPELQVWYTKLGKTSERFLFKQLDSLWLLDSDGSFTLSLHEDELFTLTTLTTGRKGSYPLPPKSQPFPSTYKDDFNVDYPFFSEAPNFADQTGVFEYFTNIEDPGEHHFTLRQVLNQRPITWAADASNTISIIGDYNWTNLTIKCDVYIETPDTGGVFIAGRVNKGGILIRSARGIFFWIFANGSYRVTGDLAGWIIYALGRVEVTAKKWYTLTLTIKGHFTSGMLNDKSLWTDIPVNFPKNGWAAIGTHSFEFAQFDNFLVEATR
Procedure, shortened: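 qHTS, 1536-well; 145M-Twi-hGALC-G270D cells (WT line also made) in DMEM/F12 + 10% FBS; compound incubation on live cells; HMU-β-gal 0.1 mM final, pH 5.2, NaTC; carbonate stop; fluorescence increase = enhanced residual activity.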
Note: 0% is about no effect; nearly all actives have a fitted effect of over 65% in size.

activation, inactive:
Cc1ccc(-n2c(=O)c3c(c4cc(C)ccc4n3C)n(CC(=O)NCc3ccccc3)c2=O)cc1 2.68%
COc1ccccc1NC(=O)CSc1nc(-c2ccccc2F)nc2cc(=O)[nH]n12 -4.33%
COc1ccc(CCNc2nc3c(-c4cccc(C)c4)nnn3c3ccccc23)cc1OC 0.878%
COc1ccc(-c2onc(C)c2C)cc1S(=O)(=O)NCC1CCN(Cc2cccc(F)c2)CC1 -9.2%
CC1=C(c2ccc(Cl)cc2)S(=O)(=O)N=C1N1CCC(C(=O)NCc2ccccc2F)CC1 -1.84%
CCc1ccc2oc(C(=O)Nc3ccccc3C(=O)OC)cc(=O)c2c1 -10.8%
CC(CCc1ccc(O)cc1)NCCc1ccc(O)c(O)c1 (stereo not given) -16.5%
CCOc1ccccc1CNC(=O)c1cccn1-c1nnc(N2CCCC2)s1 -3.16%
COc1ccc(S(=O)(=O)N(CC(=O)Nc2cccnc2)c2ccc(Cl)cc2)cc1 -9.52%
COc1ccc(CNC(=O)Cn2c(=O)cc(-c3ccccc3)c3c(C)nn(C)c32)cc1 -3.32%
COc1ccc(NC(=O)Cn2c(=O)ccc3cc(S(=O)(=O)N4CCCC4)ccc32)cc1Cl 0.457%
Clc1cccc(-n2ncc3c(NCCCn4ccnc4)ncnc32)c1 -8.27%
Cc1cccc(N2CCN(C(=O)Cn3nc(Cc4cccnc4)c4ccccc4c3=O)CC2)c1C -7.22%
O=C(CCOc1ccccc1)N(Cc1cccnc1)c1nc2c(F)cccc2s1 -25.1%
CCCCn1c(NCc2ccc(N(C)C)cc2)nc2ccccc21 -8.5%
O=C(O)Cn1ccc2cc(S(=O)(=O)N3CCCCCC3)ccc21 -4.62%
COc1ccc(CNC(=O)COCc2cc(-c3cccs3)on2)cc1 -12%
O=C(Nc1ccc(Cl)c(C(F)(F)F)c1)C1CCN(S(=O)(=O)c2cccc3nonc23)CC1 -5.71%
Cc1cccn2c(=O)c(C(=O)NCCc3ccc(S(N)(=O)=O)cc3)c(O)nc12 -9.24%
Cc1ccccc1CSc1cn(CC(=O)N2CCCCCC2)c2ccccc12 -16.6%
COC(=O)c1scc(-c2ccc(C)cc2)c1S(=O)(=O)N1CCN(c2ccc(C(C)=O)cc2)CC1 -10.1%
Cc1ccc(Cl)cc1N1CCN(C(=O)Cn2cnc3sc(C)c(S(=O)(=O)N4CCC(C)CC4)c3c2=O)CC1 -2.54%
Cc1nc2nc(NCc3ccc(Cl)cc3)[nH]n2c(=O)c1Cc1ccccc1 2.69%
COc1ccc(C2=CC(c3ccccc3Cl)n3nc(-c4ccc(Cl)cc4)nc3N2)cc1 (stereo not given) 2.32%
CCOC(=O)c1c(C)oc2nc(C)nc(NCc3ccc(F)cc3)c12 -11.9%
CCCn1c(CCC(=O)Nc2ccc(OCC)cc2)nc2cccnc21 -27.7%
Cc1ccc(-n2c(=O)c3c(C)c(C)sc3n(CC(=O)NCc3ccccc3)c2=O)cc1C -9.68%
CC1CCc2c(sc(NC(=O)C3c4ccccc4Oc4ccccc43)c2C#N)C1 (stereo not given) -2.19%
Cc1ccc(CNC(=O)CCCn2c(=O)c3ccccc3n(CC(=O)Nc3ccc(C)c(C)c3)c2=O)cc1 -10.7%
CCOc1ccc(CCNC(=O)CCCn2c(=O)c3cccn3c3ccccc32)cc1 -0.163%
COc1ccc(C(=O)Nc2nnc(SCc3cc(=O)c4cc(C)cc(C)c4[nH]3)s2)cc1 -10.5%
CCc1ccccc1NC(=O)CCNS(=O)(=O)c1ccc2c(c1)CCN2C(=O)C1CC1 -29.4%
Cn1c(=O)c2c(nc(SCC(=O)Nc3ccccc3F)n2Cc2ccc(Cl)cc2)n(C)c1=O -18.3%
Cc1ccc(-n2ncc3c(NCCC4=CCCCC4)ncnc32)cc1 -3.18%
COC(=O)NCC(c1cccnc1)N1CCN(c2ccc(F)cc2)CC1 (stereo not given) -3.08%
Cc1ccc(Cl)cc1NC(=O)C(C)n1nc(-c2ccccc2)ccc1=O (stereo not given) -7.55%
Cc1c(C(=O)N2CCC(c3nc4ccccc4s3)CC2)oc2ccc(Cl)cc12 -5.13%
Oc1c(C(c2ccccc2F)N2CCN(Cc3ccccc3)CC2)sc2nc(-c3ccco3)nn12 (stereo not given) -21.1%
CC1CCN(CCCC(=O)c2ccc(F)cc2)CC1 -21.2%
CCNC(=O)c1c(NC(=O)Cc2coc3cc(C)cc(C)c23)sc2c1CCCC2 -15.8%
COc1ccccc1N1CCN(S(=O)(=O)c2c(C)sc3ncn(CC(=O)N(C)c4ccc(Cl)cc4)c(=O)c23)CC1 -10.1%
COCCn1c(=NC(=O)c2ccc3c(c2)OCCO3)sc2cc(C(=O)OC)ccc21 -12.9%
COc1ccc(C(=O)OC2=C(C(=O)c3ccccc3)N(C)S(=O)(=O)c3ccccc32)cc1OC -25.3%
Cc1ccc(Cl)cc1NC(=O)Cn1c(=O)oc2cc(S(=O)(=O)N3CCCC3)ccc21 -20.2%
Cc1ccc2c(CC(=O)Nc3ccc(S(=O)(=O)N4CCCCC4)cc3)coc2c1 -14.6%
Cc1ccc(NC(=O)c2cc(-c3ccc(Br)s3)nc3ccccc23)cc1F -6.48%
Cc1cc(C)c2c(=O)nc(SCc3ccccc3C)n(C3CC3)c2n1 -10.3%
Nc1ccc(S(N)(=O)=O)cc1 -11.4%
CCOc1ccccc1N(C)C(=O)C1CCCN(c2ncnc3c2nc2n3CCCCC2)C1 (stereo not given) -21.7%
Cc1ccc(-n2ncc3c(Nc4cccc(C)c4C)ncnc32)cc1 -18%
CCOc1ccc(CNC(=O)Cn2cc3c(n2)-c2c(oc(C(=O)N4CCOCC4)c2C)CC3)cc1 5.01%
COc1ccccc1N1CCN(CCCNC(=O)c2cnn(-c3cccc(Cl)c3)c2C2CCN(C(=O)OC(C)(C)C)CC2)CC1 -21.4%
Cc1ccc(CN2C(=O)C3(c4ccccc42)N(c2cccc(F)c2)C(=O)CS3(=O)=O)cc1 (stereo not given) -12.8%
CCN1CCC[C@H]1CNC(=O)c1cc(S(N)(=O)=O)ccc1OC -6.79%
Cc1ccc(OCc2ccc(-c3nc(C#N)c(NCc4cccnc4)o3)o2)cc1 -4.51%
CCCCN(CC)CCNC(=O)c1cn(C)c(=O)c2c1c1ccccc1n2C -7.16%
CCc1cccc(-n2nnc(-c3nsc(NC(=O)c4cccs4)n3)c2C)c1 -15.7%
CC(=O)Nc1ccc2nc(-c3cc(C)ccc3C)[nH]c2c1 -16.7%
CCOC(=O)c1c(C)c(-c2ccccc2)n(CC(=O)Nc2cc(C)ccc2OC)c1C -8.94%
Cc1ccccc1CN1CCC(CNc2ncnc3onc(-c4ccc(F)cc4)c23)CC1 2.16%
COc1cc(NC(=O)NC(C)c2c(-n3cccc3)sc3c2CCCC3)cc(OC)c1OC (stereo not given) -17.8%
CCOC(=O)c1c(C)[nH]c(CCC(=O)NC(C)c2ccccc2)c1C (stereo not given) -11.3%
CCN(CC)CCCNc1sc(S(=O)(=O)c2ccccc2)nc1S(=O)(=O)c1ccc(Cl)cc1 -16.9%
COc1ccc(C)cc1NC(=O)NC(C)c1c(-n2cccc2)sc(C)c1C (stereo not given) 1.01%
CCN(C(=O)c1sc2nc3n(c(=O)c2c1C)CCCCC3)c1ccc(OC)cc1 -2.23%
CCOC(=O)c1cn(CC(=O)Nc2ccc(OC)cc2OC)nn1 -10.3%
CCOc1ccc(CCNC(=O)c2ccc3c(c2)N(Cc2ccc(C)cc2)CCS3)cc1 -13.5%
O=C(C1CCCN(S(=O)(=O)c2ccc(Br)s2)C1)N1CCN(c2ccccc2F)CC1 (stereo not given) -7.26%
Fc1ccc(Nc2ncnc3onc(-c4ccc(Cl)cc4)c23)cc1Cl -11.6%
Cc1c(C(=O)Nc2ccc(-n3c(C)nc4ccccc4c3=O)cc2)cccc1[N+](=O)[O-] -17.2%
COc1ccc(C2C(C(=O)Nc3ccccc3)=C(C)Nc3nc(SCC(=O)c4ccc(C)cc4)nn32)cc1 (stereo not given) -11.7%
CC1=C(c2ccc(F)cc2)S(=O)(=O)N=C1N1CCC(C(=O)NCCc2ccccc2C)CC1 -26%
CC(C)Cc1ccc(S(=O)(=O)N2CCN(Cc3noc(CCC(=O)N4CCCCC4)n3)CC2)cc1 -18.9%
CCCC(=O)Nc1nnc(S(=O)(=O)N2CCCCCC2)s1 -12.2%
COC(=O)C(NC(=O)CCc1c(C)nc2c(-c3ccccc3)c(C)nn2c1C)C(C)C (stereo not given) -6.66%
Cc1ccc(Cl)cc1NC(=O)Cn1c(=O)n(CCC(=O)NCc2ccc3c(c2)OCO3)c(=O)c2sccc21 -7.67%
Cc1cc2nn(-c3ccc(F)cc3)nc2cc1NC(=O)c1cccc2c(Cl)cccc12 -20.8%
CCOc1cc2c(cc1OCC)C(CC(=O)O)N(C(=O)Nc1ccccc1C(F)(F)F)CC2 (stereo not given) -10.4%
Cc1cc(C)nc(-n2nc(C)c3c2NC(=O)CC3c2cccc(O)c2)n1 (stereo not given) -16.3%
COc1cc(OC)c(NC(=O)Nc2cccc(OCc3cc(=O)n4ccccc4n3)c2)cc1Cl -9.44%
COc1ccc(-n2cc(-c3ccccc3)c3c(Nc4ccc(OC)c(OC)c4)ncnc32)cc1 -15.3%
CCn1c(C)c(C)c2cc(C(=O)NCc3ccc(F)cc3)ccc21 -11.9%
CCOC(=O)c1ccc2c(c1)N(Cc1ccc(F)cc1Cl)C(=O)c1ccccc1S2(=O)=O -8.91%
Cc1ccc(CNC(=O)c2nc(SCc3ccccc3C)ncc2Cl)cc1 -14.2%
Cc1noc(-c2ccc(NC(C)c3ccccc3)c([N+](=O)[O-])c2)n1 (stereo not given) -15.2%
CCOC(=O)CC(=O)CSc1nc2ccsc2c(=O)n1Cc1ccccc1 -38.2%
CCC(=O)N1CCc2cc(Br)cc(S(=O)(=O)N3CCN(c4ccccc4OC)CC3)c21 -5.74%
COc1ccccc1NC(=O)c1ccc(CN2C(=O)C(C)=C(c3ccc(C)c(C)c3)S2(=O)=O)cc1 -10.6%
CC1(c2ccccc2)CC(C)(C)N(C(=O)c2cccc(Cl)c2)c2ccccc21 (stereo not given) -7.06%
Cc1cc(C)cc(-n2c(SCC(=O)N3CCOCC3)nc3c([nH]c4ccccc43)c2=O)c1 -14.1%
Cc1ccc(CCNS(=O)(=O)c2c(C)nc3sc(C)c(C)n3c2=O)cc1 -12.8%
COc1cccc(-c2nnc(-c3ccccc3NC(=O)c3ccc(F)cc3F)o2)c1 -12.7%
Cc1ccc(CNC(=O)c2ccc(CSCc3cccc(C)c3)o2)cc1 3.27%
COc1cccc(NC(=O)c2ccc3c(c2)CCN3S(C)(=O)=O)c1 -9.39%
CC1CCN(S(=O)(=O)c2ccc3c(c2)N(CC(=O)NCCc2ccccc2)C(=O)CO3)CC1 0.692%
